{"source": "PubChem BioAssay AID588453", "about": "(National Center for Advancing Translational Sciences (NCATS), 2011)", "note": "Hit rate of the full screen: of about 390,000 compounds, about 4,000 (1%) were called active. The shares of active, inactive and inconclusive entries below differ from those in the screen. Calls come from the whole dose curve; as a rule, active = well fitted inhibition curve with a large enough effect; inconclusive = small, poorly fitted or top-dose-only effect; inactive = no such curve, though single readings can be large or run the other way. Potencies of inconclusive entries are doubtful fits and often do not repeat. Potency is the fitted concentration of half-maximal effect; tags give direction and shape of the fitted curve."}
{"target": "Thioredoxin reductase 1, cytoplasmic (Rattus norvegicus) (UniProt O89049)", "sequence (O89049 whole entry, looked up)": "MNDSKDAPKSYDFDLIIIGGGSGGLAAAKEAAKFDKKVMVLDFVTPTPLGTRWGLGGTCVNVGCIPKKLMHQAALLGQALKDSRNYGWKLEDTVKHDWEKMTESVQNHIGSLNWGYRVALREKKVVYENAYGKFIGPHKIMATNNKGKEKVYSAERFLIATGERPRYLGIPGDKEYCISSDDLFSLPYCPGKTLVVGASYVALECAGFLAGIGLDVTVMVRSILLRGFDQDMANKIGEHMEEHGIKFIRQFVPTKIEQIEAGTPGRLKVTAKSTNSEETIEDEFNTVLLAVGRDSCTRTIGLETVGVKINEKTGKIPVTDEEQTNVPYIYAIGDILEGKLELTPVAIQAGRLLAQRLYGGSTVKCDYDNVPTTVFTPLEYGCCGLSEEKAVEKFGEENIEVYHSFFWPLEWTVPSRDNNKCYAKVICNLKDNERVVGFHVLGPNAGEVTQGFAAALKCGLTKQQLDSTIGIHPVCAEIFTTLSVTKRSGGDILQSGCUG", "assay": "qHTS Assay for Inhibitors of Mammalian Selenoprotein Thioredoxin Reductase 1 (TrxR1): qHTS; note: nearly all actives have a fitted effect of over 65% in size", "conditions": "recombinant rTrxR1, NADPH fluorescence consumption, selenite substrate; series mostly up to 114 µM", "outline": "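Rat TrxR1 (90 nM in the dispensed reagent) was pre-reduced with 400 uM NADPH for 5 min at room temperature, then incubated with compound for 15 min. After 400 uM selenite was added, NADPH fluorescence (Ex 340/Em 450 nm) was followed for 8 min.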"}
{"smiles": "COc1ccc(NC(=O)c2cc(-c3ccc(C)o3)nc3ccccc23)c(OC)c1", "Potency": "inconclusive: 56.2 µM [inhibitor, single point]"}
{"smiles": "CCC1OC2(C)OC(=N)C1(C#N)C(C#N)(C#N)C2c1ccccc1", "note": "(stereo not drawn)", "Potency": "inconclusive: 50.1 µM [inhibitor, partial curve, poor fit]"}
{"smiles": "CCC1(C)Cc2c(sc3c2c2ncnn2c2nnc(SCC(=O)NCc4ccco4)n32)CO1", "note": "(stereo not drawn)", "Potency": "inconclusive: 63.1 µM [inhibitor, single point]"}
{"smiles": "CCOc1ccc(S(=O)(=O)N2CCC(c3ccncc3)CC2)cc1", "Potency": "inactive"}
{"smiles": "COc1ccc(OC)c(NC(=O)N2CC3CCCN3c3ccccc32)c1", "note": "(stereo not drawn)", "Potency": "inactive"}
{"smiles": "O=C1N/C(=C\\c2ccc(O)cc2)C(=O)c2ccccc21", "Potency": "inconclusive: 3.16 µM [inhibitor, full curve]"}
{"smiles": "Cc1nc(S/C(=C\\c2ccc(-c3ccc(C(=O)O)c(Cl)c3)o2)C(=O)O)n[nH]1", "Potency": "inconclusive: 8.91 µM [inhibitor, full curve]"}
{"smiles": "CC1CCc2c(c3ccccc3n2C(=O)CCl)C1", "note": "(stereo not drawn)", "Potency": "inconclusive: 31.6 µM [inhibitor, partial curve]"}
{"smiles": "COc1ccc(/C=C2\\CCCC3C2=NC(=S)NC3c2ccc(OC)cc2)cc1", "note": "(stereo not drawn)", "Potency": "inconclusive: 89.1 µM [inhibitor, single point]"}
{"smiles": "FC(F)Oc1ccccc1NC(=S)Nc1cccc(Cl)c1Cl", "Potency": "inconclusive: 44.7 µM [inhibitor, partial curve]"}
{"smiles": "CC1=CSC2=NC(=O)/C(=C/c3cccc(OC(=O)c4ccco4)c3)C(=N)N12", "Potency": "inconclusive: 56.2 µM [inhibitor, partial curve]"}
{"smiles": "O=C(CCC(=O)c1cccs1)OCC(=O)N1CCN(C(=O)c2ccco2)CC1", "Potency": "inconclusive: 17.8 µM [inhibitor, full curve, poor fit]"}
{"smiles": "CC(=O)Oc1ccc(-c2cc3ccc(OC(C)=O)cc3oc2=O)cc1", "Potency": "inactive"}
{"smiles": "CC(C)CSC1=NSC2=NC(=O)/C(=C\\c3coc4ccccc4c3=O)C(=N)N12", "Potency": "inconclusive: 89.1 µM [inhibitor, single point]"}
{"smiles": "COc1ccc(C(C)=O)cc1COC(=O)c1ccc2c(c1)OCO2", "Potency": "inconclusive: 17.8 µM [inhibitor, single point]"}
{"smiles": "COc1cc(OC)c2c(-c3ccccc3)cc(=O)oc2c1C(CC(=O)N1CCOCC1)c1ccc(N(C)C)cc1", "note": "(stereo not drawn)", "Potency": "inconclusive: 20 µM [inhibitor, partial curve]"}
{"smiles": "CCOC(=O)c1c(C)[nH]c2c1cc(O)c1ccccc12", "Potency": "inactive"}
{"smiles": "O=C(CCNc1cccc(Cl)c1)c1ccco1", "Potency": "inconclusive: 39.8 µM [inhibitor, partial curve, poor fit]"}
{"smiles": "COc1ccc2nc(C)cc(C(=O)O)c2c1", "Potency": "inconclusive: 100 µM [inhibitor, single point]"}
{"smiles": "CCOc1ccc(C2/C(=C(/O)c3ccc(S(=O)(=O)N4CCCCC4)cc3)C(=O)C(=O)N2CCCOC)cc1OC", "note": "(stereo not drawn)", "Potency": "inconclusive: 70.8 µM [inhibitor, single point]"}
{"smiles": "COc1ccc2ccccc2c1C1CC(=O)N2CN(Cc3ccco3)CSC2=C1C#N", "note": "(stereo not drawn)", "Potency": "inconclusive: 1.78 µM [inhibitor, full curve]"}
{"smiles": "CC1(C)CC(=O)C2=C(C1)NC(=S)C(C#N)C21CCCCC1", "note": "(stereo not drawn)", "Potency": "inconclusive: 35.5 µM [inhibitor, partial curve]"}
{"smiles": "FC(F)(F)c1cccc(N2CCN(c3ncnc4c3nc3n4CCCC3)CC2)c1", "Potency": "inactive"}
{"smiles": "Cc1cc(C)c(COc2ccc(/C=N/n3c(C)n[nH]c3=S)cc2)c(C)c1", "Potency": "inactive"}
{"smiles": "Cc1occc1C(=O)N/N=C/C1=C(N2CCOCC2)C(=C/c2ccc(Cl)cc2Cl)/CC1", "Potency": "inconclusive: 89.1 µM [inhibitor, single point]"}
{"smiles": "COc1cccc(C(=O)Nc2ccc3nc(SCC(=O)N(C)c4ccccc4)sc3c2)c1", "Potency": "inactive"}
{"smiles": "Cn1ccsc1=NC(=O)c1ccc([N+](=O)[O-])o1", "Potency": "inconclusive: 39.8 µM [inhibitor, partial curve, poor fit]"}
{"smiles": "COc1ccccc1CNC(=O)COC(=O)c1ccc([N+](=O)[O-])o1", "Potency": "inconclusive: 50.1 µM [inhibitor, partial curve]"}
{"smiles": "COc1ccc(OC)c(NC(=O)NC2CCCCCCC2)c1", "Potency": "inactive"}
{"smiles": "CCOC(=O)C1=C(N)OC(C)=C(C#N)C1c1ccco1", "note": "(stereo not drawn)", "Potency": "inactive"}
{"smiles": "O=C1/C(=C\\c2ccccn2)SC(=S)N1Nc1ncc(C(F)(F)F)cc1Cl", "Potency": "inconclusive: 17.8 µM [inhibitor, partial curve, poor fit]"}
{"smiles": "Cc1cccn2c(=O)c3cc(C(=O)NCC(C)C)sc3nc12", "Potency": "inconclusive: 100 µM [inhibitor, single point]"}
{"smiles": "O=C(O)c1cccc(Cn2c(Cl)c(/C=N/NC(=O)c3ccco3)sc2=O)c1", "Potency": "active: 79.4 µM"}
{"smiles": "CCC(=O)NC(=S)Nc1ccc(NC(=O)c2ccco2)c(OC)c1", "Potency": "inconclusive: 20 µM [inhibitor, full curve]"}
{"smiles": "CN(Cc1ccccc1)S(=O)(=O)c1cccc2cccnc12", "Potency": "inactive"}
{"smiles": "Cc1ccc(/C=C/C(=O)Nc2ccncc2)o1", "Potency": "active: 79.4 µM"}
{"smiles": "COCCn1c(=S)[nH]c2sc3c(c2c1=O)CCC(C)C3", "note": "(stereo not drawn)", "Potency": "inconclusive: 0.891 µM [inhibitor, full curve, poor fit]"}
{"smiles": "O=[N+]([O-])c1ccccc1CNCCCCCO", "Potency": "inconclusive: 50.1 µM [inhibitor, partial curve]"}
{"smiles": "O=C(O)c1ccccc1N/C=C\\[N+](=O)[O-]", "Potency": "inconclusive: 70.8 µM [inhibitor, single point]"}
{"smiles": "N#CC1=C2SCN(Cc3ccccc3)CN2C(=O)CC1c1ccc2c(c1)OCO2", "note": "(stereo not drawn)", "Potency": "inconclusive: 31.6 µM [inhibitor, partial curve]"}
{"smiles": "COc1ccccc1CCNC(=O)Cc1c(C)c2cc(Cl)c(O)cc2oc1=O", "Potency": "active: 79.4 µM"}
{"smiles": "COC(=O)c1sccc1NC(=S)Nc1ccccc1", "Potency": "inconclusive: 11.2 µM [inhibitor, partial curve]"}
{"smiles": "COc1cc(OC)cc(C(=O)NC(=S)N2CCCCC2c2cccnc2)c1", "note": "(stereo not drawn)", "Potency": "inconclusive: 79.4 µM [inhibitor, single point]"}
{"smiles": "CC(C)CN(CC(C)C)C(=O)c1cccc(S(=O)(=O)N2CCc3ccccc32)c1", "Potency": "inactive"}
{"smiles": "COC(=O)COc1ccc(-c2nnc(Nc3ccc(O)cc3)c3ccccc23)cc1", "Potency": "inactive"}
{"smiles": "Cc1cc(Cl)ccc1-n1c(CCC(=O)O)ccc1-c1cccs1", "Potency": "inconclusive: 70.8 µM [inhibitor, single point]"}
{"smiles": "Cc1cc(-c2n[nH]c(=S)n2/N=C/c2cccs2)n[nH]1", "Potency": "inconclusive: 89.1 µM [inhibitor, partial curve, poor fit]"}
{"smiles": "S=C(Nc1nc2c(s1)CCCC2)NC1CC1", "Potency": "inconclusive: 70.8 µM [inhibitor, partial curve, poor fit]"}
{"smiles": "Cc1ccccc1C(=O)Nc1ccnn1C1CCN(Cc2ccncc2)CC1", "Potency": "inconclusive: 79.4 µM [inhibitor, single point]"}
{"smiles": "CCCc1cc(=O)oc2c3c(ccc12)OCN(Cc1ccccc1OC)C3", "Potency": "active: 22.4 µM"}
{"smiles": "Cc1cc(C)cc(NC(=O)CSc2nnc(-c3ccccc3C)o2)c1", "Potency": "inactive"}
{"smiles": "N#Cc1c(N)sc(=S)c2c1CCCC2", "Potency": "inconclusive: 25.1 µM [inhibitor, single point]"}
{"smiles": "CCOC(=O)c1cc2c(nc1N)CC(C)(CC)OC2", "note": "(stereo not drawn)", "Potency": "inconclusive: 35.5 µM [inhibitor, partial curve, poor fit]"}
{"smiles": "COCCCNC(=S)Nc1ccc2nc(N3CCOCC3)cc(C)c2c1", "Potency": "inconclusive: 3.55 µM [inhibitor, partial curve, poor fit]"}
{"smiles": "Cc1ccc(N(CC(=O)N2CCN(c3cc(C)ccc3C)CC2)S(=O)(=O)c2c(C)nn(C)c2C)cc1", "Potency": "inactive"}
{"smiles": "CC(=O)N1CCN(c2ccc(NC(=O)c3cccc(Cl)c3)cc2)CC1", "Potency": "inactive"}
{"smiles": "COC(=O)C1=C[C@@H](C(=O)OC)[C@@H]2C3=C(C(=O)C2(C)C)[C@H](C)n2c(=O)n(C)c(=O)n2[C@@H]3C1", "Potency": "inconclusive: 28.2 µM [inhibitor, single point]"}
{"smiles": "O=C(/C=C/c1ccco1)Nc1cccc2cccnc12", "Potency": "inconclusive: 20 µM [inhibitor, single point]"}
{"smiles": "CCOC(=O)c1cnc2ccc(C)cc2c1Sc1ccccc1", "Potency": "inconclusive: 25.1 µM [inhibitor, single point]"}
{"smiles": "CCN1CCSc2ccc(C(=O)NCc3ccccc3C)cc21", "Potency": "inactive"}
{"smiles": "O=C(NCC(c1ccc(F)cc1)N1CCOCC1)c1ccc([N+](=O)[O-])o1", "note": "(stereo not drawn)", "Potency": "inconclusive: 39.8 µM [inhibitor, partial curve, poor fit]"}
{"smiles": "COc1ccc(-n2cc(CNCCN3CCOC3=O)c(-c3ccccc3Cl)n2)cc1", "Potency": "inconclusive: 70.8 µM [inhibitor, partial curve]"}
{"smiles": "CN(C)CCNc1oc(COc2cccc(Cl)c2)nc1C#N", "Potency": "inconclusive: 31.6 µM [inhibitor, full curve, poor fit]"}
{"smiles": "O=C(COc1ccccc1)Nc1ccc(S(=O)(=O)NCc2ccco2)cc1", "Potency": "inconclusive: 31.6 µM [inhibitor, full curve]"}
{"smiles": "CC(C)Cc1nc(N2CCN(C(=O)c3ccco3)CC2)c(C#N)c2c1CCC2", "Potency": "inconclusive: 50.1 µM [inhibitor, partial curve]"}
{"smiles": "COC(=O)C1=C(C)NC(=O)C1(NS(=O)(=O)c1ccc(C)cc1)C(F)(F)F", "note": "(stereo not drawn)", "Potency": "inconclusive: 50.1 µM [inhibitor, partial curve]"}
{"smiles": "O=C(NCc1ccco1)c1sc2cc(Cl)ccc2c1Cl", "Potency": "inconclusive: 44.7 µM [inhibitor, partial curve]"}
{"smiles": "Cc1ccc(OCCCNCCO)c(Br)c1", "Potency": "inconclusive: 3.16 µM [inhibitor, partial curve, poor fit]"}
